From patent US12551573B2, “Compositions and methods for the targeting of PCSK9” (Scribe Therapeutics Inc., priority 2022, dated 2026)
Numbering of substitutions follows the chain as printed.

B1: DOMAIN_7328 (protein, listed as Terrapene carolina)
chain: MPVTFEEVAVYFTQGQGALLDPAQRALYRDVMQENYETVTSLGFPIPKPELIARLERGEEPWVPDLQACKERRLPRCTRTG
B2: DOMAIN_5463 (protein, listed as Aotus trivirgatus)
chain: MAAAALRLPAQGTVTFEDVAVKFSQEEWSLLSEAQRCLYHDVMLENLALISSLGCWYGANDETPSKQTLSIQQQSPLRSHW
B3: DOMAIN_6970 (protein, listed as Phasianus colchicus)
chain: CQEPVSFAQVAVYFSREEWALLDPAQRALYRDVMLETYQCVASLAPLPAHKPMVISLLEGGEDPWIPDVRSPEAVPGDLSP
B4: DOMAIN_7000 (protein, listed as Phasianus colchicus)
chain: B3 chain with H50P, V54L, I66V, R70C
B5: DOMAIN_7534 (protein, listed as Gopherus agassizii)
chain: KHGPVTFEEVAVYFTREEWALLDPTQRALYRDVMQENYEMVVLLGFLNSKPDVISQLEQGEEPCIVDLQGSEKEVLPRAAC
B6: DOMAIN_6866 (protein, listed as Alligator mississippiensis)
chain: AQGPVTFEDVAVYFSAEEWQELAGWQRELYRDVMMDTYELVASLGPAGLKPEVVSKLERGEEPHQPARSRESPRAPLPVLL
B7: DOMAIN_6802 (protein, listed as Pantherophis guttatus)
chain: QGSVSFEDVAVYFTEEEWALLDSSQRALHREVMLENSRNLAAVGYGQEHKNYQEPSLALFQSEERMLGIQRVLQKTRRSCL
B8: DOMAIN_7480 (protein, listed as Gopherus agassizii)
chain: MPVTFEDVAVYFTQGQGALLDPTQRALYRDVMQENYETVTSLGKSVKGFPLAKPDLITRLERGEEPWVSDLQATGDERMSE
B9: DOMAIN_7123 (protein)
chain: DRVKFTFSDVAVYFSEEEWQLLEEQQKELYRNVMKENYTTLTSLGYTTVKPDVISKIEQGKQPSVSSPSGSKGRRAVGRPT
modifications: Microcaecilia unicolor
B10: DOMAIN_6936 (protein, listed as Callipepla squamata)
chain: EPVSFEEVAVYFSREEWALLDPAQRALYWDVMLETYECVASLAPLPGPKPMVISLLEEGEEPWIPDVGSPEAVAGDVSPGE
B11: DOMAIN_7553 (protein, listed as Gopherus agassizii)
chain: FQMPVTFEEVAVYFTQGQGALLDPAQRALYRDVMQENYKMVTSLGFPLPKPELISRLEQGEEPWVPDLQACEERESLSGNH
B12: DOMAIN_7365 (protein)
chain: QVPVTFEDIAVSFSQEEWKYLDEGQKNLYWEVMKENYETLISLADSEVEQEDKRAKNREECPMLWGLIPRQSRKNSEKVSW
modifications: Microcaecilia unicolor
B13: DOMAIN_7510 (protein, listed as Gopherus agassizii)
chain: LEGLVTFEEVAVYFTESEWSLLDPAQRALYRDVMEENYENVTSLGFPVSKPDVISWLERGEDPWVPDLQDPEKRETLREAC
B14: DOMAIN_6248 (protein, listed as Saimiri boliviensis)
chain: SVTFEDVAVNFSLEEWNLLNEAQRCLYRDVMLETLTLISSLGAPPHTLFPARACGPEAPPSRHCPRPSLCLSLSPLHPTGV
B15: DOMAIN_8167 (protein, listed as Mus musculus)
chain: MESVSFEDVAVKFTQEEWAVLDPSQKKLYKDVMQETLKNLASIGNKSGKQKVINEYGKLWRKLSSHLAGKFSDYNENHQCA
B16: DOMAIN_8013 (protein, listed as Callipepla squamata)
chain: LQEPVSFEEVAVYFSREEWALLDPAQRALYRDVMLETYECVASLAPLPAPKPMVISLLEEGEEPWVPDVGSPEAVAGDVSP
B17: DOMAIN_7711 (protein, listed as Columba livia)
chain: GKMSVTFEDVALYFSPEEWAKLSGCQRQLYQEVMLENYQMVASLGWANVKPEIICKMEREETPCVPDVPGKQQRHQSPVPV
B18: DOMAIN_7750 (protein, listed as Columba livia)
chain: B17 chain with Q31R, N48T, P66L, V68P, K71E, R74M, V81A
B19: DOMAIN_7824 (protein, listed as Columba livia)
chain: B17 chain with Q31R, V49I, P63L, D67A, V68P, G70R, K71E, Q72W, H75D, V81A
B20: DOMAIN_7641 (protein, listed as Gallus gallus)
chain: B3 chain with C1L, Q9E, S43W, H50P, M53G, V54L
B21: DOMAIN_7925 (protein, listed as Gallus gallus)
chain: B3 chain with Q9E, S43W, P46S, H50P, M53G, V54L, D68G, V75M
B22: DOMAIN_8148 (protein, listed as Cricetulus griseus)
chain: KPELVSFEDVAVYFSPHEWGCLRPAQRALYREVMRETYGLLGALGFPGPKPALISWMEQESEAWSPAAQDPAEGESLGGAL
B23: DOMAIN_7745 (protein)
chain: LQEPVSFAEVAVCFSREEWALLDPAQRVLYRDVMLETYQCVASLASLLTPKPVLISLLEGGEEPWIPDVRSPEATPGDLSP
modifications: Meleagris gallopavo
B24: DOMAIN_7653 (protein, listed as Gallus gallus)
chain: AREPVSFVEVAVYFSREEWALLDPAQRALYRDVMLETYESVASLGPFPAPKPVVISLLEGGDDPWIPDVHSPEAVSGDFSP
B25: DOMAIN_8179 (protein, listed as Mesocricetus auratus)
chain: SQVSVTFEDVAVLFTRDEWKKLDHSQRSLYREVMLENYSNLASLGFPFAKPEMISVLQQGEEPWKVEKRSLGFSLGCNSSL
B26: DOMAIN_7850 (protein, listed as Terrapene carolina)
chain: FQMPVTFEEVAVYFTQGQGALLDPAQRALYRDVMQENYEMVTSLGFPIPKPELIARLERGEEPWVPDLQACKERRLPRCTR
B27: DOMAIN_8041 (protein, listed as Dipodomys ordii)
chain: APGSVTFRDVAIDFSQEEWKWLQPAQRDLYRCVMLENYGHLVSLGLCISKPDVVSLLEQGKEPWLGKGGVNRDLFSVSDGK
B28: DOMAIN_8182 (protein, listed as Mus caroli)
chain: QASVTFEDVAVRFTQEEWALLDPSQKILYGDVMQETYRNLTSVGINWECWDLEAYFRSLERNLRVQLVKRDCELKNNDPCG
B29: DOMAIN_8216 (protein, listed as Cricetulus griseus)
chain: MLSFWDVAIEFSPEERECLDPAQWSLYRDVMLENYSNLLFLGLAVPKPHLVTFLEQRQESSGVKRQAAATVHPGRIPNDYN
B30: DOMAIN_8151 (protein, listed as Cricetulus griseus)
chain: EQGLVSFEDVAVDFTWQEWQELDAAQRTLYRDVMLENYSSLVSLGHCVTKPELIFRLEHGFGPWSIGETSLWNLPGVLEVP
B31: DOMAIN_8226 (protein, listed as Rattus norvegicus)
chain: ARGLMAFEDVAVYFSQEEWMFLNAAQRALYRHVMLENFALVDSIGPSVSRPRVIIQLQRGEEPWVPNRTIAGPGRGTHRRS
B32: DOMAIN_8154 (protein, listed as Cricetulus griseus)
chain: KVKQFSFQSLLTFKDLAINFSKEEWEYLNTSQKDLYKDVMLENYSNLVSVGLSESKPELVTCLEQNKEPWMVHIVEAEGLE
B33: DOMAIN_8014 (protein, listed as Callipepla squamata)
chain: B10 chain with W29R, D30H, G47A, V67E, P70R, E71Q
B34: DOMAIN_7678 (protein)
chain: VPVTFEDVAVRFSAEEWEILEGWQKELHKEVMEENYQLLISLGQPVPTLALLALTAEREAAGGQIRSVSGERELASKGGSS
modifications: Chelonia mydas
B35: DOMAIN_8054 (protein, listed as Cavia porcellus)
chain: RPRALKFADVAVYFSLEEWGCLRPAQRTLYRNVMRETYGHLGALGCAGPKPALISWLERNTDDWEPAALDPQEYPRGVTVQ
B36: DOMAIN_7895 (protein, listed as Patagioenas fasciata)
chain: QDAVTFKDVAIYFSPEEWVRLSAGQRELYQEVMLDNYELVTSLDRECKLLYKMDPEEEPCEGVPCRGVDSGALDNSSTSAC

System: HBEGF locus
Assay type: cell-based, human
Conditions: high-throughput screen of dXR repression of the HBEGF gene; change in abundance of each domain in the library before and after diphtheria toxin selection

Molecule	Log2 (fold change)
B1	3.1808
B2	3.2102
B3	3.343
B4	2.8279
B5	3.4086
B6	3.5825
B7	3.0403
B8	3.1707
B9	2.9074
B10	3.5294
B11	2.9036
B12	2.597
B13	3.0452
B14	2.4415

Same assay, conditions: repressor domain in dXR, repression of the HBEGF gene; abundance of domain in library after vs before diphtheria toxin selection

Molecule	Log2 (fold change)
B15	3.9362
B16	3.9783
B17	3.7965
B18	2.8111
B19	2.9383
B20	3.6727
B21	3.3919
B22	3.6904
B23	3.4946
B24	3.3772
B25	3.0623
B26	3.124
B27	3.6568
B28	2.2411
B29	3.1747
B30	3.1527
B31	2.4602
B32	2.8774
B33	3.7425
B34	2.7348
B35	3.5889
B36	3.2254
